# Experimental data taken from the supplement of paper PMC8728848.
# This is one part of the list.
# B1: LICBM33A (Lactococcus lactis), Q9CE94 (protein)
# chain: MKKLLTGLLVAAGLLSVSLLIKTDTVSAHGYVQSPPARGYQGQLDSQSLGWTAAFNIYGNVISNPQSLEAPKGFPECGPADGRIASANGGLGQIGDFVLDNQTSSRWKKTSISTGSNIFTWKYTAPHKTTKWHYYMTKTGWDQNAPLKHSELELIGTINHDGSPATNNLSHTINIPTDRSGYHIVLAVWDVADTSNAFYNVIDINVNNKNASSQVFGPFL
# Legend:
# Experiment in all cases: glycan array binding signal (z-score within array); higher = stronger binding
# Details in all cases: glycan notation: IUPAC condensed, linker removed
# [1] = target: Gal(b1-4)GlcNAc(b1-2)Man(a1-6)[GlcNAc(b1-2)Man(a1-3)]Man(b1-4)GlcNAc(b1-4)GlcNAc
# How it was run: (§1)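 Glycan array binding is given as a within-array Z-score, which can be read as non-binding when negative. The arrays, 3228 of them, came from the Consortium for Functional Glycomics database and were retained only where the protein sequence was available. Z-scores were averaged across arrays of the same protein sequence at different concentrations or buffers and across linkers.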
# [2] = target: Gal(b1-4)GlcNAc(b1-2)Man(a1-6)[Man(a1-3)]Man(b1-4)GlcNAc(b1-4)GlcNAc
# How it was run: as §1
# [3] = target: Gal(b1-4)GlcNAc(b1-2)[Gal(b1-4)GlcNAc(b1-4)]Man(a1-3)[Gal(b1-4)GlcNAc(b1-2)Man(a1-6)]Man(b1-4)GlcNAc(b1-4)GlcNAc
# How it was run: as §1
# [4] = target: Gal(b1-4)GlcNAc(b1-2)[Gal(b1-4)GlcNAc(b1-4)]Man(a1-3)[Gal(b1-4)GlcNAc(b1-2)[Gal(b1-4)GlcNAc(b1-6)]Man(a1-6)]Man(b1-4)GlcNAc(b1-4)GlcNAc
# How it was run: as §1
# [5] = target: Gal(b1-4)GlcNAc(b1-2)[Gal(b1-4)GlcNAc(b1-4)]Man(a1-3)[GlcNAc(b1-4)][Gal(b1-4)GlcNAc(b1-2)Man(a1-6)]Man(b1-4)GlcNAc(b1-4)GlcNAc
# How it was run: as §1
# [6] = target: Gal(b1-4)GlcNAc(b1-2)[Gal(b1-4)GlcNAc(b1-4)]Man(a1-3)[GlcNAc(b1-4)][Gal(b1-4)GlcNAc(b1-2)[Gal(b1-4)GlcNAc(b1-6)]Man(a1-6)]Man(b1-4)GlcNAc(b1-4)GlcNAc
# How it was run: as §1
# [7] = target: Gal(b1-4)GlcNAc(b1-2)[Gal(b1-4)GlcNAc(b1-6)]Man(a1-6)[Gal(b1-4)GlcNAc(b1-2)Man(a1-3)]Man(b1-4)GlcNAc(b1-4)GlcNAc
# How it was run: as §1
# [8] = target: Gal(b1-4)GlcNAc(b1-2)[Gal(b1-4)GlcNAc(b1-6)]Man(a1-6)[Gal(b1-4)GlcNAc(b1-2)Man(a1-3)]Man(b1-4)GlcNAc(b1-4)[Fuc(a1-6)]GlcNAc
# How it was run: as §1
# [9] = target: Gal(b1-4)GlcNAc(b1-2)[Gal(b1-4)GlcNAc(b1-6)]Man(a1-6)[GlcNAc(b1-4)][Gal(b1-4)GlcNAc(b1-2)Man(a1-3)]Man(b1-4)GlcNAc(b1-4)GlcNAc
# How it was run: as §1
# [10] = target: Gal(b1-4)GlcNAc(b1-2)[Gal(b1-4)GlcNAc(b1-6)]Man(a1-6)[GlcNAc(b1-4)][Gal(b1-4)GlcNAc(b1-2)[Gal(b1-4)GlcNAc(b1-4)]Man(a1-3)]Man(b1-4)GlcNAc(b1-4)[Fuc(a1-6)]GlcNAc
# How it was run: as §1
# [11] = target: Gal(b1-4)GlcNAc(b1-3)Gal(b1-3)GalNAc
# How it was run: as §1
# [12] = target: Gal(b1-4)GlcNAc(b1-3)Gal(b1-3)GlcNAc
# How it was run: as §1
# [13] = target: Gal(b1-4)GlcNAc(b1-3)Gal(b1-4)Glc
# How it was run: as §1
# [14] = target: Gal(b1-4)GlcNAc(b1-3)Gal(b1-4)GlcNAc
# How it was run: as §1
# [15] = target: Gal(b1-4)GlcNAc(b1-3)Gal(b1-4)GlcNAc(b1-2)Man(a1-3)[Gal(b1-4)GlcNAc(b1-3)Gal(b1-4)GlcNAc(b1-2)Man(a1-6)]Man(b1-4)GlcNAc(b1-4)GlcNAc
# How it was run: as §1
# [16] = target: Gal(b1-4)GlcNAc(b1-3)Gal(b1-4)GlcNAc(b1-2)Man(a1-3)[Gal(b1-4)GlcNAc(b1-3)Gal(b1-4)GlcNAc(b1-2)Man(a1-6)]Man(b1-4)GlcNAc(b1-4)[Fuc(a1-6)]GlcNAc
# How it was run: as §1
# [17] = target: Gal(b1-4)GlcNAc(b1-3)Gal(b1-4)GlcNAc(b1-2)[Gal(b1-4)GlcNAc(b1-3)Gal(b1-4)GlcNAc(b1-6)]Man(a1-6)[Gal(b1-4)GlcNAc(b1-3)Gal(b1-4)GlcNAc(b1-2)Man(a1-3)]Man(b1-4)GlcNAc(b1-4)GlcNAc
# How it was run: as §1
# [18] = target: Gal(b1-4)GlcNAc(b1-3)Gal(b1-4)GlcNAc(b1-2)[Gal(b1-4)GlcNAc(b1-3)Gal(b1-4)GlcNAc(b1-6)]Man(a1-6)[Gal(b1-4)GlcNAc(b1-3)Gal(b1-4)GlcNAc(b1-2)Man(a1-3)]Man(b1-4)GlcNAc(b1-4)[Fuc(a1-6)]GlcNAc
# How it was run: as §1
# [19] = target: Gal(b1-4)GlcNAc(b1-3)Gal(b1-4)GlcNAc(b1-3)Gal(b1-4)GlcNAc
# How it was run: as §1
# [20] = target: Gal(b1-4)GlcNAc(b1-3)Gal(b1-4)GlcNAc(b1-3)Gal(b1-4)GlcNAc(b1-2)Man(a1-3)[Gal(b1-4)GlcNAc(b1-3)Gal(b1-4)GlcNAc(b1-3)Gal(b1-4)GlcNAc(b1-2)Man(a1-6)]Man(b1-4)GlcNAc(b1-4)GlcNAc
# How it was run: as §1
# [21] = target: Gal(b1-4)GlcNAc(b1-3)Gal(b1-4)GlcNAc(b1-3)Gal(b1-4)GlcNAc(b1-2)Man(a1-3)[Gal(b1-4)GlcNAc(b1-3)Gal(b1-4)GlcNAc(b1-3)Gal(b1-4)GlcNAc(b1-2)Man(a1-6)]Man(b1-4)GlcNAc(b1-4)[Fuc(a1-6)]GlcNAc
# How it was run: as §1
# [22] = target: Gal(b1-4)GlcNAc(b1-3)Gal(b1-4)GlcNAc(b1-3)Gal(b1-4)GlcNAc(b1-2)[Gal(b1-4)GlcNAc(b1-3)Gal(b1-4)GlcNAc(b1-3)Gal(b1-4)GlcNAc(b1-6)]Man(a1-6)[Gal(b1-4)GlcNAc(b1-3)Gal(b1-4)GlcNAc(b1-3)Gal(b1-4)GlcNAc(b1-2)Man(a1-3)]Man(b1-4)GlcNAc(b1-4)[Fuc(a1-6)]GlcNAc
# How it was run: as §1
binder,measurement,setting,value
B1,glycan array binding signal (z-score),[1],-0.512
same,glycan array binding signal (z-score),[2],-1.01
same,glycan array binding signal (z-score),[3],-0.458
same,glycan array binding signal (z-score),[4],-0.445
same,glycan array binding signal (z-score),[5],-0.283
same,glycan array binding signal (z-score),[6],-0.148
same,glycan array binding signal (z-score),[7],-0.525
same,glycan array binding signal (z-score),[8],-0.269
same,glycan array binding signal (z-score),[9],-0.433
same,glycan array binding signal (z-score),[10],-0.622
same,glycan array binding signal (z-score),[11],-0.224
same,glycan array binding signal (z-score),[12],-0.158
same,glycan array binding signal (z-score),[13],0.254
same,glycan array binding signal (z-score),[14],-0.705
same,glycan array binding signal (z-score),[15],-0.103
same,glycan array binding signal (z-score),[16],0.511
same,glycan array binding signal (z-score),[17],0.114
same,glycan array binding signal (z-score),[18],-0.441
same,glycan array binding signal (z-score),[19],-0.608
same,glycan array binding signal (z-score),[20],0.138
same,glycan array binding signal (z-score),[21],0.764
same,glycan array binding signal (z-score),[22],-1.02
